Values joined by “and” are separate entries in the source; they are usually repeats but may differ in a detail not shown here. Equal values may be shown once. Toxic doses and inconclusive results are not listed.
Test system: L1210 leukemia ip in BDF1 mice, survival T/C
Assay: NCI In Vivo Anticancer Drug Screen. Data for tumor model L1210 Leukemia (intraperitoneal) in B6D2F1 (BDF1) mice
Conditions: endpoint: mean survival time, higher = longer survival
Method: The antitumor activity of compounds was measured in mice bearing transplantable tumors. Survival or tumor size were measured and the results are expressed as the measurement made in the treated group (T) divided by the measurement made in the vehicle treated control group (C). The tumor model used in this assay is L1210 Leukemia (intraperitoneal) in B6D2F1 (BDF1) mice

COc1ccc(NC(=O)/C=C/c2ccccc2)cc1
T/C (dose: 100.0 mg/kg/injection, schedule: Q01DX009 (ip), vehicle: Klucel (hydroxypropylcellulose) (HPC)): 95 % of control
T/C (dose: 200.0 mg/kg/injection, schedule: Q01DX009 (ip), vehicle: Klucel (hydroxypropylcellulose) (HPC)): 107 % of control
T/C (dose: 400.0 mg/kg/injection, schedule: Q01DX009 (ip), vehicle: Klucel (hydroxypropylcellulose) (HPC)): 96 % of control

COc1c(O)cc2c(c1OC)-c1ccc(OC)c(=O)cc1[C@@H](NC(C)=O)CC2
T/C (dose: 0.62 mg/kg/injection, schedule: Q01DX009 (ip), vehicle: saline with Tween-80): 113 % of control
T/C (dose: 2.5 mg/kg/injection, schedule: Q01DX009 (ip), vehicle: saline with Tween-80): 122 % of control
T/C (dose: 3.75 mg/kg/injection, schedule: Q01DX009 (ip), vehicle: saline with Tween-80): 153 % of control
T/C (dose: 7.5 mg/kg/injection, schedule: Q01DX009 (ip), vehicle: saline with Tween-80): 150 % of control
T/C (dose: 10.0 mg/kg/injection, schedule: Q01DX009 (ip), vehicle: saline with Tween-80): 96 % of control
T/C (dose: 10.0 mg/kg/injection, schedule: Q01DX009 (ip), vehicle: saline): 107 % of control
T/C (dose: 100.0 mg/kg/injection, schedule: Q04DX003 (ip), vehicle: saline): 93 % of control

COc1cc2c(c(OC)c1OC)-c1ccc(OC)c(=O)cc1C(N)CC2 (stereo not drawn)
T/C (dose: 50.0 mg/kg/injection, schedule: Q01DX009 (ip), vehicle: other): 97 % of control
T/C (dose: 75.0 mg/kg/injection, schedule: Q01DX009 (ip), vehicle: other): 102 % of control and 112 % of control
T/C (dose: 150.0 mg/kg/injection, schedule: Q01DX009 (ip), vehicle: other): 93 % of control

— PubChem BioAssay AID248 (DTP/NCI, 2004)
